Data from article PMC13083723 (Patterns, 2026).
About 190 (3.5%) of roughly 5,400 compounds showed an effect of 50% or more. The list shows a part of the results. Positions of bridges follow the written chain, without caps; N, C: chain ends. Non-standard residues stand in square brackets, D forms with d. Residues, ends and D or L forms follow the SMILES beside them. *: point of attachment. dPhe(4-NHCONH2) = NC(=O)Nc1ccc(C[C@@H](N)C(=O)O)cc1; Dihydroorotyl(S) = O=C1C[C@@H](C(=O)*)NC(=O)N1; dPhe(4-Cl) = N[C@H](Cc1ccc(Cl)cc1)C(=O)O; Phe(4-NH2) = Nc1ccc(C[C@H](N)C(=O)O)cc1; d2Nal = N[C@H](Cc1ccc2ccccc2c1)C(=O)O; Lys(iPr) = CC(C)NCCCC[C@H](N)C(=O)O; d3Pal = N[C@H](Cc1cccnc1)C(=O)O

system: Vero-E6; test: primary screen, phospholipidosis by LipidTOX staining; higher = more effect of the substance; details: 10 µM
Procedure, shortened: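 Drug-induced phospholipidosis detected with HCS LipidTOX Red reagent in Vero-E6 cells. Compounds tested at 10 μM, with amiodarone (10 μM) as positive control and DMSO (0.1 v/v %) as vehicle.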

Compound | result_ITMP [%]
CCCCC1=NC2(CCCC2)C(=O)N1Cc1ccc(-c2ccccc2-c2nnn[nH]2)cc1 | -11.8
CC1=CC(=O)[N-]S(=O)(=O)O1 | -5.65
CCCCOC(=O)c1ccc(N)cc1 | -3.08
O=C(Nc1ccc(C(=O)O)c(O)c1)c1ccccc1 | 3.46
COc1[nH]c2ccc(F)cc2c1C(=O)OCC1CCN(CCNS(C)(=O)=O)CC1 | -0.84
CCN(Cc1ccc(Cl)nc1)/C(=C/[N+](=O)[O-])NC | 0.71
O=C(Nc1cc(C(F)(F)F)ccc1O)Nc1cc(C(F)(F)F)ccc1O | 2.26
Cc1ccccc1-n1c(Cn2ncc3c(N)ncnc32)nc2cccc(C)c2c1=O | 0.34
CSC[C@H](N)C(=O)O | -1.63
CO/N=C1\C[C@@H](C(=O)NC[C@@H](O)c2ccccc2)N(C(=O)c2ccc(-c3ccccc3C)cc2)C1 | 0.8
CN(C)C(=O)COC(=O)Cc1ccc(OC(=O)c2ccc(NC(=N)N)cc2)cc1 | -0.95
COc1ccc(Cc2cnc(N)nc2N)cc1OC | -5.91
CC(C)C[C@@H]1NC(=O)[C@@H](C(C)C)NC(=O)[C@@H]2CCCN2C(=O)[C@@H](CC(=O)O)NC(=O)[C@@H](Cc2c[nH]c3ccccc23)NC1=O (cyclo(L[dW][dD]P[dV])) | -4.98
COc1cc(CN(CCN)C(=O)c2cccs2)ccc1OCc1ccccc1 | 85.4
CC(Cc1ccccc1)(NC(=O)CN)c1ccccc1 (stereo not shown) | 8.52
CCCC(C)(COC(N)=O)COC(=O)NC(C)C (stereo not shown) | -1.53
CCC1(C)CC(=O)NC(=O)C1 | -1.29
N=C(N)NC(=O)c1nc(Cl)c(N)nc1N | -2.3
CC(=O)[C@H]1CCC2C3CCC4=CC(=O)CC[C@]4(C)C3CC[C@@]21C (stereo partly shown) | -2.09
CCCCCCCCCCC(O)C1C=CC2C(=O)N(c3ccccc3)C(=O)C2N1Nc1ccc([N+](=O)[O-])cc1 (stereo not shown) | -1.8
O=C(CO)[C@@H](O)[C@@H](O)[C@H](O)CO | -3.35
Nc1cccc2c(=O)[nH][nH]c(=O)c12 | -1.77
NC(CSC(c1ccccc1)(c1ccccc1)c1ccccc1)C(=O)O (stereo in doubt) | -1.96
COc1cccc(OC)c1OCCNCC1COc2ccccc2O1 (stereo not shown) | -4
O=C1NCN(c2ccccc2)C12CCN(CCCC(c1ccc(F)cc1)c1ccc(F)cc1)CC2 | 1.98

Compound | result_ITMP [%]
O=C(Nc1ccc(-c2ccnc(Nc3ccc(N4CCOCC4)cc3)n2)cc1)[C@@H]1CCCN1 | 26.6
CC(C)(C)C(=O)OCOC(=O)[C@@H]1N2C(=O)[C@@H](NC(=O)[C@H](N)c3ccccc3)[C@H]2SC1(C)C | -4.27
CCC(=O)N1CCOc2c(cc(-c3ccc(OC)c(OC)c3)cc2OC[C@H]2CCCN(C)C2)C1 | 17.6
COc1ccc(CN(C(=O)[C@@H](N)Cc2c(C)cc(C(N)=O)cc2C)[C@@H](C)c2ncc(-c3ccccc3)[nH]2)cc1C(=O)O | -0.29
CCS(=O)(=O)N(C)[C@H]1c2cc(C#N)ccc2OC(C)(C)[C@@H]1O | -6.66
Cc1cc(C2CCCCC2)n(O)c(=O)c1 | 1.78
CC1=C(C(=O)OC(C)C)C(c2cccc([N+](=O)[O-])c2)C(C(=O)OC2CN(C(c3ccccc3)c3ccccc3)C2)=C(N)N1 (stereo not shown) | -9.99
COc1cc(C(=O)NS(=O)(=O)c2ccccc2C)ccc1Cc1cn(C)c2ccc(NC(=O)OC3CCCC3)cc12 | -4.05
CN[C@H]1CN(c2ccc3c(=O)c(C(=O)O)cn(-c4nccs4)c3n2)C[C@@H]1OC | -1.77
Cl[C@H]1[C@H](Cl)[C@@H](Cl)[C@@H](Cl)[C@H](Cl)[C@H]1Cl | -3.66
CC(=O)N[C@H](Cc1ccc2ccccc2c1)C(=O)N[C@H](Cc1ccc(Cl)cc1)C(=O)N[C@H](Cc1cccnc1)C(=O)N[C@@H](CO)C(=O)N[C@@H](Cc1ccc(NC(=O)[C@@H]2CC(=O)NC(=O)N2)cc1)C(=O)N[C@H](Cc1ccc(NC(N)=O)cc1)C(=O)N[C@@H](CC(C)C)C(=O)N[C@@H](CCCCNC(C)C)C(=O)N1CCC[C@H]1C(=O)N[C@H](C)C(N)=O (Ac-[d2Nal][dPhe(4-Cl)][d3Pal]S[Phe(4-NH2)](Dihydroorotyl(S))[dPhe(4-NHCONH2)]L[Lys(iPr)]P[dA]-NH2) | -13.2
CNC(=O)c1ccccc1Nc1nc(Nc2ccc3c(c2OC)CCC[C@H](N2CCN(CCO)CC2)C3)ncc1Cl | 139
CCCn1c(=O)c2[nH]c(-c3cnn(Cc4cccc(C(F)(F)F)c4)c3)nc2n(CC)c1=O | -2.26
O=C(O)c1cc(=O)c2ccccc2o1 | -0.64
Oc1cc(O)c2cc(O)c(-c3cc(O)c(O)c(O)c3)[o+]c2c1 | -9.23
CCC(CC)C(c1ccc(Nc2nc3ccccc3s2)cc1)n1cncn1 (stereo not shown) | -2.26
Fc1ccc(-c2nc(-c3c(F)cccc3F)[nH]c2-c2ccncc2)cc1 | -0.33
Cc1ccc2c(c1)C1(CCN(CCc3nc(-c4ccccc4)oc3C)CC1)OC(=O)N2 | -2.38
NCCCC[C@H](NC(=O)[C@@H]1CCCN1C(=O)[C@@H]1CSSC[C@H](NC(=O)CNC(=O)CNC(=O)CN)C(=O)N[C@@H](Cc2ccc(O)cc2)C(=O)N[C@@H](Cc2ccccc2)C(=O)N[C@@H](CCC(N)=O)C(=O)N[C@@H](CC(N)=O)C(=O)N1)C(=O)NCC(N)=O (H-GGGCYFQNCPKG-NH2; disulfide 4-9) | 0.09
Oc1ccc(Cl)cc1Cc1cc(Cl)ccc1O | -6.35
NS(=O)(=O)c1cc(C(=O)O)c(NCc2ccco2)cc1Cl | -2.4
NC(=O)CN1CC(c2ccccc2)CC1=O (stereo not shown) | -1.72
CCOc1cc([C@@H](CS(C)(=O)=O)N2C(=O)c3cccc(NC(C)=O)c3C2=O)ccc1OC | -5.1
C[C@]12CCC(=O)C[C@@H]1CC[C@@H]1[C@@H]2CC[C@]2(C)C=CC[C@@H]12 | -0.52
